{"source": "PubChem BioAssay AID624296", "about": "(National Center for Advancing Translational Sciences (NCATS), 2012)", "note": "The whole screen tested about 350,000 compounds, of which about 9,900 (2.8%) were called active. This list was built around the results that the source calls inconclusive (neither active nor inactive); the mix of calls is not that of the screen. Calls follow the shape of the dose curve; as a rule, active = well fitted activation curve with a large enough effect; inconclusive = small, poorly fitted or top-dose-only effect; inactive = no such curve, though single readings can be large or run the other way. No potency is given beside an inconclusive call; the fits are too rough. Potency is read from the fitted curve at half-maximal effect; tags tell the direction and shape of the fitted curve.", "data": [{"test": "A quantitative high throughput screen for small molecules that induce DNA re-replication in MCF 10a normal breast cells; also: nearly all actives have a fitted effect of over 50% in size.", "conditions": "MCF 10A DNA re-replication, Hoechst nuclear intensity, 48 h; series mostly up to 46.1 µM", "values": [{"compound": "Cc1ccc(C(C)C)c2oc(=O)cc(-c3ccc(-c4ccc(C(F)(F)F)cc4)cc3)c12", "Potency": "inactive"}, {"compound": "COc1cc(CCCN2CCNC[C@@H]2c2ccccc2)cc(OC)c1OC", "Potency": "inconclusive [activator, full curve, poor fit]"}, {"compound": "CCOCC(=O)Nc1cc(-c2cn3cccnc3n2)ccc1C", "Potency": "inactive"}, {"compound": "CCCCNC(=O)c1nc2ncc(Br)cn2n1", "Potency": "inconclusive [activator, partial curve, poor fit]"}, {"compound": "Cc1c(NC(=O)CN2C(=O)NC(C)(c3ccc4c(c3)OCCO4)C2=O)c(=O)n(-c2ccccc2)n1C", "note": "(centres undefined)", "Potency": "inactive"}, {"compound": "CCC(C)c1ccc(S(=O)(=O)N2CCN(c3ccccn3)CC2)cc1", "note": "(centres undefined)", "Potency": "inconclusive [activator, partial curve, poor fit]"}, {"compound": "CCOCCn1c(SCc2ccccc2)nc2c1c(=O)[nH]c(=O)n2C", "Potency": "inactive"}, {"compound": "COc1ccccc1NC(=O)Cn1nc(Cc2cccnc2)c2ccccc2c1=O", "Potency": "inconclusive [activator, full curve, poor fit]"}, {"compound": "Cc1ccc(C(=O)CSc2nnc(-c3ccco3)o2)o1", "Potency": "inactive"}, {"compound": "O=C(Nc1ccc2c(c1)OCO2)c1cc(-c2cccc(O)c2)on1", "Potency": "inconclusive [activator, partial curve, poor fit]"}, {"compound": "Cc1cc(C)cc(NC(=O)c2cc(C)n(Cc3cccs3)c2C)c1", "Potency": "active: 18.4 µM"}, {"compound": "Cn1c2ccccc2c(=O)c2c(=O)n(Cc3ccco3)c(-c3ccc(F)cc3)nc21", "Potency": "inactive"}, {"compound": "O=C(CSc1ccc(Cl)cc1)Nc1ccccc1N1CCN(C(=O)c2ccccc2)CC1", "Potency": "inconclusive [activator, single point]"}, {"compound": "COc1ccc(CCC(=O)Nc2cccc(S(=O)(=O)N3CCCCCC3)c2)cc1", "Potency": "inconclusive [activator, single point]"}, {"compound": "CCc1c(C(C)S(=O)(=O)c2ccccc2)[nH]c(=O)n1CC", "note": "(centres undefined)", "Potency": "inconclusive [activator, full curve, poor fit]"}, {"compound": "C[C@H](NC(=O)c1[nH]cnc1C(=O)Nc1ccc(Cl)cc1)C(=O)OC(C)(C)C", "Potency": "inactive"}, {"compound": "COc1cc(CO)c(Br)cc1OCC(N)=O", "Potency": "inconclusive [activator, partial curve]"}, {"compound": "CCN(CC)C(=O)CSc1nnc(-c2ccccc2)o1", "Potency": "active: 5.17 µM"}, {"compound": "CCN1C(=O)[C@H]2[C@@H](c3ccc(OC)cc3)N3C(=O)CN(Cc4ccccc4)C(=O)[C@@]3(Cc3ccccc3)[C@H]2C1=O", "Potency": "inconclusive [activator, partial curve, poor fit]"}]}]}
